Results from PubChem BioAssay AID212 (DTP/NCI, 2004).
Records with an inconclusive call do not appear. The source holds more than one record for some entries. Only these are listed. The source may hold further records. The records of an entry are repeated measurements across runs, samples, wells, individuals or studies.

Test system: BDF1 mice, colon carcinoma 38 sc, T/C %
Experiment: NCI In Vivo Anticancer Drug Screen. Data for tumor model Colon Carcinoma 38 (subcutaneous) in B6D2F1 (BDF1) mice
Details: endpoint: median tumor weight (est.), higher = larger tumour
In short: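 Ratio of survival or tumor size, compound-treated animals relative to vehicle controls, in tumor-bearing mice.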

CSc1ncc2ncn(C3OC(CO)C(O)C3O)c2n1 (stereo not drawn)
T/C (dose: 12.5 mg/kg/injection, schedule: Q07DX002 (ip), vehicle: Klucel (hydroxypropylcellulose) (HPC)): 15 % of control and 229 % of control
T/C (dose: 50.0 mg/kg/injection, schedule: Q07DX002 (ip), vehicle: Klucel (hydroxypropylcellulose) (HPC)): 56 % of control and 170 % of control
T/C (dose: 100.0 mg/kg/injection, schedule: Q07DX002 (ip), vehicle: Klucel (hydroxypropylcellulose) (HPC)): 68 % of control and 161 % of control
T/C (dose: 200.0 mg/kg/injection, schedule: Q07DX002 (ip), vehicle: Klucel (hydroxypropylcellulose) (HPC)): 38 % of control and 123 % of control

C[CH2][Sn]([CH2]C)([O]S(C)(=O)=O)[O]S(C)(=O)=O
T/C (dose: 3.12 mg/kg/injection, schedule: Q07DX002 (ip), vehicle: saline): 14 % of control and 94 % of control
T/C (dose: 12.5 mg/kg/injection, schedule: Q07DX002 (ip), vehicle: saline): 47 % of control, 79 % of control, 98 % of control

O=C(O)c1ccc(C(=O)O)c(C(=O)O)c1.[NH-]C1CCCCC1[NH-].[Pt+2]
T/C (dose: 12.5 mg/kg/injection, schedule: Q07DX002 (ip), vehicle: sodium bicarbonate): 39 % of control, 66 % of control, 98 % of control

CN(C(=S)S(=O)(=O)C12CC3CC(CC(C3)C1)C2)c1ccccc1
T/C (dose: 25.0 mg/kg/injection, schedule: Q07DX002 (ip), vehicle: Klucel (hydroxypropylcellulose) (HPC)): 115 % of control and 150 % of control

O=NN(CCCl)C(=O)NC1OC(CO)C(O)C(O)C1O (stereo not drawn)
T/C (dose: 1.25 mg/kg/injection, schedule: Q07DX002 (ip), vehicle: saline): 68 % of control and 155 % of control
T/C (dose: 4.0 mg/kg/injection, schedule: Q07DX002 (ip), vehicle: saline): 52 % of control and 94 % of control
T/C (dose: 5.0 mg/kg/injection, schedule: Q07DX002 (ip), vehicle: saline): 45 % of control and 103 % of control
T/C (dose: 10.0 mg/kg/injection, schedule: Q07DX002 (ip), vehicle: saline): 70 % of control and 110 % of control
T/C (dose: 20.0 mg/kg/injection, schedule: Q07DX002 (ip), vehicle: saline): 33 % of control and 62 % of control

COc1ccc(C(Cn2ccnc2)Sc2ccc(Cl)c(Cl)c2)cc1 (stereo not drawn)
T/C (dose: 12.5 mg/kg/injection, schedule: Q07DX002 (ip), vehicle: saline with Tween-80): 103 % of control and 159 % of control
T/C (dose: 50.0 mg/kg/injection, schedule: Q07DX002 (ip), vehicle: saline with Tween-80): 65 % of control and 101 % of control

COc1cc2c(cc1O)N=C[C@@H]1CCC(O)N1C2=O (mixture of isomers)
T/C (dose: 2.0 mg/kg/injection, schedule: Q07DX002 (ip), vehicle: saline): 86 % of control and 116 % of control

CC(=O)C1=C(O)C2(O)C(=O)c3c(c(C)c4ccc(C)c(O)c4c3O)CC2C(N)C1=O (stereo not drawn)
T/C (dose: 30.0 mg/kg/injection, schedule: Q07DX002 (ip), vehicle: saline + alcohol): 77 % of control and 122 % of control

Nc1ncn(C2OC(CO)C(O)C2O)c(=O)n1 (stereo not drawn)
T/C (dose: 1.0 mg/kg/injection, schedule: Q07DX002 (ip), vehicle: saline): 76 % of control, 85 % of control, 122 % of control
T/C (dose: 25.0 mg/kg/injection, schedule: Q07DX002 (ip), vehicle: saline): 75 % of control, 93 % of control, 105 % of control
T/C (dose: 100.0 mg/kg/injection, schedule: Q07DX002 (ip), vehicle: saline): 55 % of control, 77 % of control, 92 % of control
T/C (dose: 200.0 mg/kg/injection, schedule: Q07DX002 (ip), vehicle: saline): 57 % of control, 61 % of control, 97 % of control

CN(C)c1ccc(C(=C2C=CC(=[N+](C)C)C=C2)c2ccc(N(C)C)cc2)cc1 (tested in a mixture with another compound)
T/C (dose: 1.25 mg/kg/injection, schedule: Q07DX002 (ip), vehicle: saline with Tween-80): 85 % of control and 119 % of control
T/C (dose: 5.0 mg/kg/injection, schedule: Q07DX002 (ip), vehicle: saline with Tween-80): 111 % of control and 164 % of control

O=NN(CCCl)C(=O)NCCCl
T/C (dose: 2.0 mg/kg/injection, schedule: Q07DX002 (ip), vehicle: saline with Tween-80): 56 % of control and 83 % of control
T/C (dose: 2.0 mg/kg/injection, schedule: Q07DX003 (ip), vehicle: saline with Tween-80): 73 % of control and 119 % of control
T/C (dose: 8.0 mg/kg/injection, schedule: Q07DX002 (ip), vehicle: saline with Tween-80): 54 % of control and 80 % of control
T/C (dose: 16.0 mg/kg/injection, schedule: Q07DX002 (ip), vehicle: saline with Tween-80): 24 % of control and 73 % of control
T/C (dose: 16.0 mg/kg/injection, schedule: Q07DX003 (ip), vehicle: saline with Tween-80): 56 % of control and 83 % of control

CCCCCCCCCCCCCCCCCC(=O)Nc1ccn(C2OC(CO)C(O)C2O)c(=O)n1 (stereo not drawn)
T/C (dose: 25.0 mg/kg/injection, schedule: Q07DX002 (ip), vehicle: saline with Tween-80): 61 % of control and 102 % of control

O=NN(CCCl)C(=O)NC1CCCCC1
T/C (dose: 2.5 mg/kg/injection, schedule: Q07DX002 (ip), vehicle: Klucel (hydroxypropylcellulose) (HPC)): 39 % of control and 90 % of control
T/C (dose: 5.0 mg/kg/injection, schedule: Q07DX002 (ip), vehicle: Klucel (hydroxypropylcellulose) (HPC)): 47 % of control, 57 % of control, 96 % of control

CCCCCCCC(=O)N/N=C(\CO)[C@]1(O)Cc2c(O)c3c(c(O)c2[C@@H](OC2CC(N)C(O)C(C)O2)C1)C(=O)c1c(OC)cccc1C3=O (stereo partly drawn)
T/C (dose: 13.5 mg/kg/injection, schedule: Q07DX002 (ip), vehicle: distilled water + Tween-80): 45 % of control and 101 % of control
T/C (dose: 27.0 mg/kg/injection, schedule: Q07DX002 (ip), vehicle: distilled water + Tween-80): 21 % of control and 73 % of control
